Source: PubChem BioAssay (NCATS)
Inconclusive means that the source gave no clear call. Such entries were picked first, then a sample of the others. A potency beside an inconclusive call is a rough fit, not a confirmed value. The source made the active and inactive calls. The call rests on the fitted dose curve; in most records, active means well fitted cell-killing curve with a large enough effect; inconclusive means small, poorly fitted or top-dose-only effect; inactive means no such curve, though single readings can be large or run the other way.

experiment: qHTS of pediatric cancer cell lines to identify multiple opportunities for drug repurposing: Primary screen for LAN-5 cells (AID 1347100); details: LAN-5 neuroblastoma viability, CellTiter-Glo luminescence, 48 h; series mostly up to 46 µM
In short: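 Cells (500-1,000/well) in growth media were settled 5 h at 37 degrees C, then given compounds for 48 h. Viability was read as CellTiter-Glo luminescence. Primary runs used MIPE at 11 points (0.78 nM-46 µM) and NPC at 8 points (0.59 nM-46 µM); follow-ups used 11 points.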
Potency means the concentration at half of the fitted maximal effect; tags describe the fitted curve by direction and shape.

Row | Structure (SMILES) | Potency
1 | Cc1ccc(C(N)=O)cc1Nc1nccc(-c2cn(C(C)C)c3cnccc23)n1 | inconclusive: 5.26 µM [cytotoxic, full curve]
2 | COc1cc2ncnc(Nc3cccc(Br)c3)c2cc1OC | inconclusive: 16.6 µM [cytotoxic, partial curve, poor fit]
3 | COCC(=O)O[C@]1(CCN(C)CCCc2nc3ccccc3[nH]2)CCc2cc(F)ccc2[C@@H]1C(C)C | inconclusive: 29.9 µM [cytotoxic, single point]
4 | CN(C)CC/C=C1\c2ccccc2Sc2ccc(Cl)cc21 | inconclusive: 13.3 µM [cytotoxic, partial curve]
5 | CCC(C=C[C@@H]1OC(=O)C=C[C@H]1C)=C[C@H](C)CC=CC(C)=C[C@@H](C)C(=O)[C@@H](C)[C@H](O)[C@@H](C)CC(C)=CC(=O)O | inconclusive: 0.011 µM [cytotoxic, full curve]
6 | CN1CCN(CCCN2c3ccccc3Sc3ccc(S(=O)(=O)N(C)C)cc32)CC1 | inconclusive: 16.8 µM [cytotoxic, single point]
7 | CN1C(C(=O)Nc2ccccn2)=C(O)c2sc(Cl)cc2S1(=O)=O | inconclusive: 33.2 µM [cytotoxic, single point]
8 | Nc1cccc2c1C(=O)N(C1CCC(=O)NC1=O)C2=O (stereo not given) | inactive
9 | Oc1c(I)cc(I)c2cccnc12 | inconclusive: 26.6 µM [cytotoxic, single point]
10 | Clc1ccc(Nc2nnc(Cc3ccncc3)c3ccccc23)cc1 | inconclusive: 23.5 µM [cytotoxic, partial curve]
